PubChem BioAssay AID2147 (National Center for Advancing Translational Sciences (NCATS), 2009)
Where “and” joins values, the source holds several entries; their conditions need not be identical. Equal entries are not always repeated. Hit rate of the full screen: of about 230,000 compounds, about 3,600 (1.6%) were called active. The shares of active, inactive and inconclusive entries below differ from those in the screen. The call rests on the fitted dose curve; in most records, active means well fitted inhibition curve with a large enough effect (not every such curve was filed as active); inconclusive means small, poorly fitted or top-dose-only effect, or another doubt; inactive means no such curve, though single readings can be large or run the other way. A potency beside an inconclusive call is a rough fit, not a confirmed value.

target: Lysine-specific demethylase 4E (Homo sapiens) (UniProt B2RXH2); experiment: qHTS Assay for Inhibitors of Human Jumonji Domain Containing 2E (JMJD2E); conditions: JMJD2E catalytic domain, FDH-coupled NADH fluorescence (FDH is formaldehyde dehydrogenase); series mostly up to 57.1 µM; activity change, negative = inhibition: at the top concentration
Further: nearly all actives have a fitted effect of over 50% in size.
Potency means the concentration at half of the fitted maximal effect; tags describe the fitted curve by direction and shape.
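Wherever activity change, negative = inhibition is given: 0% = wells with enzyme and -100% = buffer wells without enzyme.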

UniProt B2RXH2, sequence (B2RXH2 whole entry, looked up, the tested form may be a part): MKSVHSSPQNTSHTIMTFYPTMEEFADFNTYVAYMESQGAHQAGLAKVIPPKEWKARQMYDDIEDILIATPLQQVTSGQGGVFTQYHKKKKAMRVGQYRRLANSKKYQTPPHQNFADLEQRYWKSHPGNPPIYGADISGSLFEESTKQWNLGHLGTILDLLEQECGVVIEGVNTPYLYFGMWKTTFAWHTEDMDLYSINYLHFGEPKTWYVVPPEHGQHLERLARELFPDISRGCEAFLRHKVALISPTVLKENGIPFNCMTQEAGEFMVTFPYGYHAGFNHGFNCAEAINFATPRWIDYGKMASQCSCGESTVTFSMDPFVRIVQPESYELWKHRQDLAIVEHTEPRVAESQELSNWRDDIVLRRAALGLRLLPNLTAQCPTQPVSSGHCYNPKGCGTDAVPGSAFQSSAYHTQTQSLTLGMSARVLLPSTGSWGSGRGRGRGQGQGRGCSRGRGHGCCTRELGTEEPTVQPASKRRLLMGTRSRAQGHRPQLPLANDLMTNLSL

Row | Structure (SMILES) | Potency | activity change, negative = inhibition
1 | O=C(CCC(=O)N(c1ccccc1)C(C(=O)NC1CCCC1)c1ccncc1)Nc1cccnc1 (stereo not drawn) | inconclusive: 28.2 µM [inhibitor, single point] | –
2 | Brc1cc2c(cc1C1Nc3ccccc3C3C=CCC31)OCO2 (stereo not drawn) | – | inactive: -10.2%
3 | O=C(Nc1cccnc1Cl)c1ccc(=O)oc1 | inconclusive: 8.91 µM [inhibitor, partial curve] | –
4 | Cc1ccc(-c2cc(C)nc3ncnn23)cc1 | inconclusive: 28.2 µM [inhibitor, partial curve] | –
5 | CN(C)S(=O)(=O)c1cccc(C(=O)C2=C3SC=C(c4ccccc4)N3CC2)c1 | – | inactive: -4.2%
6 | CC1=C(C(=O)OCC2CCCO2)C(c2ccsc2)C2=C(CCCC2=O)N1 (stereo not drawn) | inconclusive: 31.6 µM [inhibitor, partial curve] | –
7 | Cc1cc(NC(=O)c2ccccc2NS(=O)(=O)c2c(C)c(C)cc(C)c2C)no1 | inconclusive: 11.2 µM [inhibitor, partial curve] | –
8 | Cc1cc(-c2n[nH]c(=S)n2/N=C/c2cccc(O)c2)n[nH]1 | – | inactive: 12.9%
9 | CC(=O)Nc1ccc2nsnc2c1 | inconclusive: 35.5 µM [inhibitor, single point] | –
10 | COc1ccc(NC(=O)CN2CCOCC2)cc1 | inconclusive: 35.5 µM [inhibitor, single point] | –
11 | O=c1c(O)c(-c2cccc(O)c2)oc2ccccc12 | inconclusive: 39.8 µM [inhibitor, single point] | –
12 | O=C1NCCN1Cc1ccccc1F | inconclusive: 25.1 µM [inhibitor, partial curve] | –
13 | Cn1c(=NC(=O)c2ccco2)sc2ccccc21 | inconclusive: 39.8 µM [inhibitor, single point] | –
14 | O=C(Sc1nnc(-c2ccccc2)o1)N1c2ccccc2Sc2ccccc21 | inconclusive: 35.5 µM [inhibitor, single point] | –
15 | O=c1ccc2cc(O)c(O)cc2o1 | inconclusive: 11.2 µM [inhibitor, partial curve] and inconclusive: 28.2 µM [inhibitor, partial curve] and inconclusive: 31.6 µM [inhibitor, partial curve] | –
16 | Cc1ccc2nc(NC(=O)c3ccc(Cn4cc(Cl)cn4)o3)sc2c1 | inconclusive: 31.6 µM [inhibitor, partial curve] | –
17 | Cc1cc2ccccc2n1CCNC(=O)Cc1cccc2ccccc12 | inconclusive: 31.6 µM [inhibitor, single point] | –
18 | CCOC1=C/C(=C/c2c(N)n3nc(-c4ccccc4)sc3nc2=O)C=CC1=O | inconclusive: 3.98 µM [inhibitor, single point] | –
19 | O=c1cc[nH]c2c(C(F)(F)F)cccc12 | inconclusive: 35.5 µM [inhibitor, single point] | –
20 | C=CCNc1ccc(N2C(=O)C3CCC(C)CC3C2=O)cc1[N+](=O)[O-] (stereo not drawn) | – | inactive: 8.44%
21 | COc1ccc(C(=O)/C=C(/C)N(C)C)cc1 | – | inactive: -0.947%
22 | O=C(N/N=C/c1cccc2nccnc12)c1ccccc1O | inconclusive: 28.2 µM [inhibitor, single point] | –
23 | COc1cccc(C2c3c(oc4ccccc4c3=O)C(=O)N2CCCN(C)C)c1OC (stereo not drawn) | inconclusive: 39.8 µM [inhibitor, single point] | –

Row | Structure (SMILES) | Potency | activity change, negative = inhibition
24 | COC(=O)c1c(=O)n(O)c2ccc(OC)cc2[n+]1[O-] | inconclusive: 39.8 µM [inhibitor, single point] | –
25 | CCCn1c(O)c(CN2CCCC(C)C2)c(C)c(C#N)c1=O (stereo not drawn) | inconclusive: 25.1 µM [inhibitor, partial curve] | –
26 | Cc1ccc(C(=O)OCC(=O)NC(=O)c2cccn2C)cc1 | inconclusive: 39.8 µM [inhibitor, single point] | –
27 | Cn1c(-c2ccccc2)c[n+]2c1-c1ccccc1C2 | inconclusive: 31.6 µM [inhibitor, partial curve] | –
28 | CC1(C)Cc2nc3sc4c(NCCO)ncnc4c3cc2CS1 | inconclusive: 25.1 µM [inhibitor, partial curve] | –
29 | CCCCN1C(=O)N(C)C2NC(=O)NC21 (stereo not drawn) | – | inactive: 2.67%
30 | NC(=O)c1ccc[n+]([C@@H]2OC(COP(=O)([O-])OP(=O)(O)OCC3OC(n4cnc5c(N)ncnc54)C(OP(=O)(O)O)C3O)C(O)C2O)c1 (stereo partly drawn) | inconclusive: 25.1 µM [inhibitor, single point] | –
31 | Nc1nc2ccccc2n1/N=C/c1ccc([N+](=O)[O-])s1 | – | inactive: 0.233%
32 | Cc1ccc(NC(=O)CN2CC(C)SC2=NC2CCCCC2)cc1 (stereo not drawn) | – | inactive: -1.4%
33 | Cc1ccc(-c2nc(N)n(C(=O)c3ccco3)n2)cc1 | inconclusive: 25.1 µM [inhibitor, partial curve] | –
34 | CC(=O)c1c(C(C)=O)c(C)n(-c2ccc(C(=O)O)cc2)c1C | – | inactive: -6.62%
35 | Cc1ccc2c(c1)C(c1ccccc1)N(C(=O)c1ccc(Br)o1)CC(=O)N2 (stereo not drawn) | – | inactive: -7.16%
36 | C1=CC2CC1CC2CN1CCN(Cc2ccccc2)CC1 (stereo not drawn) | inconclusive: 28.2 µM [inhibitor, single point] | –
37 | Cc1cccc(-n2cnc3c(c2=O)c2nc4ccccc4nc2n3Cc2ccco2)c1 | inconclusive: 31.6 µM [inhibitor, partial curve] | –
38 | COc1ccc(OC)c(NC(=O)c2cccc(S(=O)(=O)N(Cc3ccccc3)c3ccccc3OC)c2)c1 | inconclusive: 31.6 µM [inhibitor, single point] | –
39 | C=CCN(CC=C)C(=O)Cc1ccc(F)cc1 | – | inactive: 3.07%
40 | Cc1c2cn[nH]c(=O)c2c(C)n1Cc1ccc(F)cc1 | inconclusive: 39.8 µM [inhibitor, single point] | –
41 | CC(C)c1nc2sc3c(=O)[nH]cnc3c2c2c1CCC2 | inconclusive: 25.1 µM [inhibitor, partial curve] | –
42 | O=C(Nc1ccc(N2CCN(C(=O)c3ccccc3)CC2)cc1)c1cc2ccccc2o1 | inconclusive: 35.5 µM [inhibitor, single point] | –
43 | CCOC(=O)C1=C(CSc2nc(-c3ccncc3)ccc2C#N)OC(N)=C(C#N)C1c1cccnc1 (stereo not drawn) | – | inactive: -18.1%
44 | CCCCCCOc1ccc(NC(=O)CC2C(=O)N(CC)C(=S)N2Cc2ccco2)cc1 (stereo not drawn) | – | inactive: -2.31%
45 | COc1ccc(-c2ccc(-c3noc(-c4ccc(OC)c(OC)c4)n3)c(OC)n2)cc1 | inconclusive: 3.55 µM [inhibitor, full curve] | –
46 | CCCCn1c(NS(=O)(=O)c2ccccc2)c(S(=O)(=O)c2ccc(C)cc2)c2nc3ccccc3nc21 | inconclusive: 14.1 µM [inhibitor, partial curve] | –

Row | Structure (SMILES) | Potency | activity change, negative = inhibition
47 | Cc1cc(O)c2c(c1)C(=O)c1cccc(O)c1C2=O | inactive and inconclusive: 25.1 µM [inhibitor, single point] | –
48 | O=C(CN1CCN(c2nc(-c3ccc(Cl)cc3)cs2)CC1)NCc1ccco1 | – | inactive: 0.0103%
49 | O=C(CSc1ncnc2sc3c(c12)CCC3)Nc1ccccc1C(=O)O | – | inactive: 0.629%
50 | COc1cc(/C=N/NC(=O)c2cc(C)oc2C)cc(OC)c1OC | inconclusive: 28.2 µM [inhibitor, partial curve] | –
51 | CCOC(=O)Cn1c(=O)c2c(nc(N3CCOCC3)n2C)n(C)c1=O | – | inactive: 0.658%
52 | CNC(=S)N(CCc1ccc(S(N)(=O)=O)cc1)C1CC(=O)N(c2ccccc2F)C1=O (stereo not drawn) | inconclusive: 15.8 µM [inhibitor, partial curve] | –
53 | C/C(=N\NC(=S)Nc1ccc(C)cc1)c1cccc(N)c1 | – | inactive: 1.4%
54 | CC(=O)Oc1ccc(C(=O)[C@H]2[C@H]3C(=O)N(c4cccc5ccccc45)C(=O)[C@H]3[C@@H]3C=CC=NN32)cc1 | inconclusive: 28.2 µM [inhibitor, single point] | –
55 | C=C1c2cc(C)ccc2NC(=O)N1c1ccccc1 | inconclusive: 35.5 µM [inhibitor, single point] | –
56 | COc1cccc(-n2c(Cc3cc(=O)[nH]c(=O)[nH]3)nnc2SCc2cccnc2)c1 | – | inactive: 5.11%
57 | COCCNC(=O)C1c2ccccc2C(=O)N(CCOC)C1c1ccc(F)cc1 (stereo not drawn) | inconclusive: 31.6 µM [inhibitor, single point] | –
58 | Cc1sc2nc(CSCC(=O)N(C)c3ccccc3)[nH]c(=O)c2c1C | inconclusive: 20 µM [inhibitor, partial curve] | –
59 | O=C1CC(c2cccc(F)c2)c2c(c3ccccc3[nH]c2=O)O1 (stereo not drawn) | inconclusive: 12.6 µM [inhibitor, partial curve] | –
60 | N#CC1(C#N)CC(C=O)=C(N)C1(C#N)CC(=O)c1ccc(F)cc1 (stereo not drawn) | inconclusive: 14.1 µM [inhibitor, partial curve] | –
61 | COc1ccc(S(=O)(=O)N(C)c2ccc(C(=O)NC3CCCC3)cc2)cc1 | – | inactive: 7.32%
62 | COc1ccc(C2CC(c3ccccc3)=NN2C(=O)COC(=O)c2cc(S(=O)(=O)N3CCOCC3)ccc2F)cc1 (stereo not drawn) | inconclusive: 22.4 µM [inhibitor, partial curve] | –
63 | COc1ccccc1N1CCN(C(CNS(=O)(=O)c2cc(F)ccc2F)c2cccnc2)CC1 (stereo not drawn) | inconclusive: 39.8 µM [inhibitor, single point] | –
64 | C=CCn1c(-c2ccco2)n[nH]c1=S | inconclusive: 25.1 µM [inhibitor, partial curve] | –
65 | C=CCOc1ccc(C(=O)CC)cc1OC | inconclusive: 3.55 µM [inhibitor, partial curve] | –
66 | O=c1[nH][nH]cc1C=Nc1ccccc1Cl | – | inactive: -6.49%
67 | C=CCn1c(-c2cc3cccc(OC)c3o2)n[nH]c1=S | inconclusive: 31.6 µM [inhibitor, partial curve] | –
68 | COCCn1c(N)c(N(Cc2ccccc2)C(=O)c2ccc(C#N)cc2)c(=O)[nH]c1=O | inconclusive: 28.2 µM [inhibitor, single point] | –
